# Data published in PubChem BioAssay (NCATS).
# This list was built around the results that the source calls inconclusive (neither active nor inactive); the mix of calls is not that of the screen. For some of these results: Potencies of inconclusive entries are left out as doubtful fits. The source made the active and inactive calls. Calls come from the whole dose curve; as a rule, active = well fitted curve in the direction sought with a large enough effect; inconclusive = small, poorly fitted or top-dose-only effect, or another doubt; inactive = no such curve, though single readings can be large; an effect the other way counts as inactive or inconclusive.
# Key:
# [1] = tested on: Zika virus NS2B-NS3 protease; assay: Primary screen GU AMC qHTS for Zika virus inhibitors (AID 1347154); note: potency is the fitted concentration of half-maximal effect; nearly all actives have a fitted effect of over 70% in size
# Method in brief: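 Unlinked Zika NS2B hydrophilic domain–NS3 protease complex at 25 nM in 10 mM Tris-HCl pH 8.0, 0.01% Tween 20, with an AMC peptide substrate. Fluorescence change (340/450 nm) over 15 min at room temperature, normalized to controls, fitted to 4-parameter Hill.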
# [2] = molecular target: Ubiquitin carboxyl-terminal hydrolase 1 (Homo sapiens) (UniProt O94782); assay: Inhibitors of USP1/UAF1: Pilot qHTS (AID 504865);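 note: rhodamine fluorescence freed from ubiquitin-rhodamine substrate followed over time; potency is the fitted concentration of half-maximal effect; nearly all actives have a fitted effect of over 35% in size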
# Method in brief: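 Deubiquitinase activity followed as kinetic rhodamine fluorescence release from 150 nM Ub-Rho. 1 nM USP1/UAF1 with compound, after 15 min room-temperature preincubation, in HEPES pH 7.8 buffer containing TCEP, EDTA, BSA and Tween-20.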
# [3] = molecular target: Furin (Homo sapiens) (UniProt P09958); assay: Furin counterscreen qHTS for Zika virus inhibitors (AID 1347149);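 note: purified recombinant full-length human furin enzyme at 5 nM; fluorescence gain from furin cutting a BOC-RVRR-AMC peptide substrate over 15 min; top concentration of the series differs between compounds; nearly all actives have a fitted effect of over 70% in size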
# Method in brief: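 Counterscreen measures cleavage of 2 microM BOC-RVRR-AMC, below its ~15 microM Km, by 5 nM full-length human furin at pH 7.0 after a 15-min compound preincubation. Inhibition derives from the 15-min fluorescence increase at 37C.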
# [4] = Confirmatory screen GU Rhodamine qHTS for Zika virus inhibitors qHTS (AID 1347157); note: potency is the fitted concentration of half-maximal effect; nearly all actives have a fitted effect of over 70% in size
# Method in brief: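 Compounds, tested up to 114 microM, were incubated for 15 minutes with 25 nM unlinked NS2B-NS3 protease at pH 8.0. Cleavage of 1.5 microM Rhodamine110 substrate was then followed by fluorescence for 15 minutes.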
# [5] = ZIKV-mCherry secondary qHTS for Zika virus inhibitors (AID 1347158); details: Vero cells, ZIKV-mCherry infection imaging, 48-72 h; note: potency is the fitted concentration of half-maximal effect
# Method in brief: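 Percent infection is the share of Hoechst-identified Vero nuclei with mCherry signal above 450 RFU (3 SD over negative controls). Cells were infected with recombinant ZIKV-mCherry at MOI 1 after compound addition and imaged 48–72 h later.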
# [6] = tested on: Zika virus NS2B-NS3 protease (linked construct); assay: Confirmatory screen NINDS AMC qHTS for Zika virus inhibitors (AID 1347152); note: potency is the fitted concentration of half-maximal effect; nearly all actives have a fitted effect of over 70% in size
# Method in brief: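 IC50s from 4-parameter Hill fits of percent inhibition, based on AMC fluorescence gain (340/450 nm) over 15 min with 10 microM Bz-Nle-KRR-AMC. Enzyme: 1 nM linked NS2B-NS3 in Tris-HCl pH 8.0; 15-min compound preincubation.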
# [7] = tested on: Zika virus NS2B-NS3 protease (unlinked complex); assay: Confirmatory screen GU AMC qHTS for Zika virus inhibitors (AID 1347153)
# Method in brief: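 Noncovalent NS2B hydrophilic domain/NS3 protease complex (25 nM) in 10 mM Tris-HCl pH 8.0, 0.01% Tween 20 was preincubated 15 min at room temperature with compounds. Then 10 µM AMC substrate (Km 18.3 µM) was added; fluorescence was read over 15 min and fitted to a 4-parameter Hill equation.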
# [8] = tested on: Zika virus NS2B-NS3 protease (linked); assay: 384 well plate NINDS AMC confirmatory qHTS for Zika virus inhibitors (AID 1347163); details: Recombinant NS2B-NS3 protease, Ac-VKTGKR-AMC fluorescence; note: potency is the fitted concentration of half-maximal effect; nearly all actives have a fitted effect of over 50% in size
# Method in brief: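 Fluorescence at 355/460 nm was read after 25 minutes of cleavage of 30 microM Ac-VKTGKR-AMC at room temperature, in the dark. Before substrate addition, compounds (up to 1 mM final) sat ~15 minutes with 5, 30 or 60 nM linked protease. Signals were normalized to no-enzyme and no-inhibitor wells.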
# [9] = Vero cells viability qHTS for Zika virus inhibitors (AID 1347167); note: potency is the fitted concentration of half-maximal effect
# Method in brief: (§1)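 qHTS titration; 24-48 h compound exposure, 37 degrees C/5% CO2; DMEM, 4% FBS; CellTiter Glo ATP luminescence.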
# [10] = HepG2 cells viability qHTS for Zika virus inhibitors (AID 1347168); note: potency is the fitted concentration of half-maximal effect
# Method in brief: as §1
# [11] = Tertiary RLuc qRT-PCR qHTS assay for Zika virus inhibitors (AID 1347169); details: infected Vero cells, reporter luminescence, 48-72 h; series mostly up to 45.9 µM; note: potency is the fitted concentration of half-maximal effect; nearly all actives have a fitted effect of over 55% in size
# Method in brief: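 Orthogonal cell-based readout: luminescence measured 1-1.5 hrs after adding live-cell Renilla substrate to Vero cells that had been infected with ZIKV-RLuc (MOI 1-2) post-compound, incubated 48-72 hrs at 37 degrees C.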
# Tags give direction and shape of the fitted curve.
# UniProt O94782, sequence (O94782 whole entry, looked up): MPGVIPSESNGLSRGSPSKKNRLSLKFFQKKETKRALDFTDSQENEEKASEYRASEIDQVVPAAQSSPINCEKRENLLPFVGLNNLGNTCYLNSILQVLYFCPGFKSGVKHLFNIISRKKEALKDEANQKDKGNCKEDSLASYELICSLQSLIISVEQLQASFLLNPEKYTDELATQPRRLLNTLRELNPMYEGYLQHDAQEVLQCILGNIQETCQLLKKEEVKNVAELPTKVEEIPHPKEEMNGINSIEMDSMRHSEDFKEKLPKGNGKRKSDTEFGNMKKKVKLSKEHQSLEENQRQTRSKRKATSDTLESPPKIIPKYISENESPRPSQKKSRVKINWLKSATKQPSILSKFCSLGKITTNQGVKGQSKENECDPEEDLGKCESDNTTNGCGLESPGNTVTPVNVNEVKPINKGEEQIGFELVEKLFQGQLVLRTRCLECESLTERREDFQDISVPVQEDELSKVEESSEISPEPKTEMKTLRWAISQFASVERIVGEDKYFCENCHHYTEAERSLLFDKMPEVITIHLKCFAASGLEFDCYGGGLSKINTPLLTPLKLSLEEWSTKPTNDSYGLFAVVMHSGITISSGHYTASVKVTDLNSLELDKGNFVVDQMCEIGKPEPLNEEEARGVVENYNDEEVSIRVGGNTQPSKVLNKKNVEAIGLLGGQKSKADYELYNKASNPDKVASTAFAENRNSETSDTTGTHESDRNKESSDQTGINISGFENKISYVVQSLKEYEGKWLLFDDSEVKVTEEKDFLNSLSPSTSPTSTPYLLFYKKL
# UniProt P09958, sequence (P09958 whole entry, looked up): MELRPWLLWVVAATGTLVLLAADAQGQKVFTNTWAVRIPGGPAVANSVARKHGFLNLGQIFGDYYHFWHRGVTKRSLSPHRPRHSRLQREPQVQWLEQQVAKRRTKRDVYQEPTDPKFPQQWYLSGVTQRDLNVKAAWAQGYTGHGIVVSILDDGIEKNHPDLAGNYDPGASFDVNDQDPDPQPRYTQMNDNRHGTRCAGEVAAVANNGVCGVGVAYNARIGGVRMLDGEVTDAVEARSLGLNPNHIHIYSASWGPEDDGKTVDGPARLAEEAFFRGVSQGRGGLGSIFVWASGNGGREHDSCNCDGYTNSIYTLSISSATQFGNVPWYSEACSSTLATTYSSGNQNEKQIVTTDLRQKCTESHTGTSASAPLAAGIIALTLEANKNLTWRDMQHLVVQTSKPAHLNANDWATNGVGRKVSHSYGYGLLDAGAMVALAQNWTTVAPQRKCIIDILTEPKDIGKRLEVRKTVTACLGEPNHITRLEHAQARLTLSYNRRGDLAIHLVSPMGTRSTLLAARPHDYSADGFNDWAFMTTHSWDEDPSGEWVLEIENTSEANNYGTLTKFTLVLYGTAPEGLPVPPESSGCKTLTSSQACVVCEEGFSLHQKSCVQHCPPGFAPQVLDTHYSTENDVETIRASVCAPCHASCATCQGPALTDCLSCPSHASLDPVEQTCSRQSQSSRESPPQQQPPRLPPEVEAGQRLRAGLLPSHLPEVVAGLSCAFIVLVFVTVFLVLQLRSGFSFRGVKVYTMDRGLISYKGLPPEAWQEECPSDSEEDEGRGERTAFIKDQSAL
structure (smiles),measurement,setting,value
COc1ccc2c(c1O)-c1cc(O)cc3c1[C@@H](C2)N(C)CC3,Potency,[1],active: 29.9 µM
O=c1c(O)c(-c2ccc(O)c(O)c2)oc2c(O)c(O)cc(O)c12,Potency,[2],"inconclusive [inhibitor, partial curve, poor fit]"
same,Potency,[3],inactive
same,Potency,[4],active: 22.4 µM
same,Potency,[5],"inconclusive [inhibitor, single point]"
CNc1ccc2oc(C[C@@H]3OC4(CC[C@@H]3C)O[C@H]([C@@H](C)C(=O)c3ccc[nH]3)[C@H](C)C[C@H]4C)nc2c1C(=O)O (stereo partly drawn),Potency,[6],active: 19.2 µM
same,Potency,[7],active: 24.1 µM
same,Potency,[1],"inconclusive [inhibitor, partial curve]"
same,Potency,[5],"inconclusive [inhibitor, full curve, poor fit]"
same,Potency,[8],"inconclusive [inhibitor, full curve, poor fit]"
same,Potency,[9],"inconclusive [cytotoxic, partial curve, poor fit]"
same,Potency,[10],active: 26.2 µM
same,Potency,[11],"inconclusive [inhibitor, full curve]"
